The campaign covered roughly 310,000 compounds. About 2,200 (0.71%) showed an effect of 50% or more. The effect is printed as a negative number. Some of the results follow.
target: human ether-à-go-go-related gene (hERG) potassium channel (human, UniProt Q12809); experiment: primary screen, population patch clamp on CHO cells stably expressing hERG
Sequence (Q12809 whole entry, looked up): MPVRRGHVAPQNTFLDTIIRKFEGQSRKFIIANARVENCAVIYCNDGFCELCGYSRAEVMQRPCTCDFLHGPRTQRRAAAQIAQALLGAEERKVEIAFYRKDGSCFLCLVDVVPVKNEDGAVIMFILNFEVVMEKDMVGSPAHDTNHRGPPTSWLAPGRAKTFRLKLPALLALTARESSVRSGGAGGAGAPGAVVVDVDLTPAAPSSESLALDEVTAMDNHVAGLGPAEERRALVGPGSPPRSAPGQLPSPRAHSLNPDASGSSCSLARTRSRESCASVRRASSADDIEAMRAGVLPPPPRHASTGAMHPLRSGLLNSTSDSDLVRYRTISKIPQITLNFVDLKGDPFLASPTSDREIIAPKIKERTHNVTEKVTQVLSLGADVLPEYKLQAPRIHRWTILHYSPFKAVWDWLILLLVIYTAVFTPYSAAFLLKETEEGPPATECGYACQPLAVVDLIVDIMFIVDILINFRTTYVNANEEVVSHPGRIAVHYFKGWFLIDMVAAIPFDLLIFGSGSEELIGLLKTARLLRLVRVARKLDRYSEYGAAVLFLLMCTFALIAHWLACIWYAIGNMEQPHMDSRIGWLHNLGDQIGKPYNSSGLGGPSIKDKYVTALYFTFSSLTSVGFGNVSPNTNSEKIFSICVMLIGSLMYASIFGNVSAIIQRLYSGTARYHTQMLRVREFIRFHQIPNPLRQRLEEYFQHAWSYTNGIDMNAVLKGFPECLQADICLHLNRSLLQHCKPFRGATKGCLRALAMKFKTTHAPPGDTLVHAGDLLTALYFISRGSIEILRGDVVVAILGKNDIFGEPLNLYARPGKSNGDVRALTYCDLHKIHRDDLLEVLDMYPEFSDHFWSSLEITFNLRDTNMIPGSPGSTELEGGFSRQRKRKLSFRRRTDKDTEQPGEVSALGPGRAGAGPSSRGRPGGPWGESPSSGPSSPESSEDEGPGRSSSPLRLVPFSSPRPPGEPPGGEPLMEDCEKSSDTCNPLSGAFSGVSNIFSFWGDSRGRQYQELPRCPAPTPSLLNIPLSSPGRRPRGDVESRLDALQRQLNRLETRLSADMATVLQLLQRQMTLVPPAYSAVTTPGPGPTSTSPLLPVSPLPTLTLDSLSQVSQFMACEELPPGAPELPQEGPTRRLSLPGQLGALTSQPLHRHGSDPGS

Row | Compound | hERG current change (%, negative = inhibition) at 1uM
1 | Cc1ccc(C(C(=O)NC(C)(C)C)N(C(=O)c2csnn2)C2CC2)cc1 (stereo not drawn) | 11.1%
2 | COc1ccccc1Nc1nc(N)nc(CN2CCN(c3ccccc3)CC2)n1 | -3.16%
3 | CC1CC(C)(C)CC2(C1)NC(=O)N(CC(=O)NCc1ccccc1F)C2=O (stereo not drawn) | 5.84%
4 | Cc1cccn2c(=O)c3cc(C(=O)NCCCn4ccnc4)n(C)c3nc12 | 2.55%
5 | O=C1SCCc2c1n(Cc1ccccc1)c1ccccc21 | -0.147%
6 | COC(=O)c1sccc1NC(=O)c1cccc(Cl)c1 | -18.2%
7 | CCOC(=O)C1CCN(C(=O)CSCc2nc(-c3ccc(OCC)cc3)oc2C)CC1 | 0.666%
8 | COc1ccccc1NC(=O)c1sc2ncn(CC(=O)N3CCC(C)CC3)c(=O)c2c1C | 10.2%
9 | Cc1cccn2c(CN3CCNC(=O)CC3)c(C(=O)N(C)CCc3ccccc3)nc12 | 3.46%
10 | CCc1ccc(OCC(=O)NNC(=O)c2nn(CC)c(=O)c3ccccc23)cc1 | -11.2%
11 | CCCCc1nnc(NC(=O)CSCc2cc(=O)n3cc(C)sc3n2)s1 | 11.7%
12 | CC1C(=O)N2CCCc3cc(NC(=O)C(=O)NCCc4ccccc4)cc1c32 (stereo not drawn) | 3.78%
13 | CCOc1ccccc1NC(=O)/C=C/C(N)=O | 11.1%
14 | O=C(Nc1cccc(-n2cccn2)c1)C1CCCN(Cc2ccc(C#CCCO)cc2)C1 (stereo not drawn) | 11.5%
15 | COc1ccc(S(=O)(=O)Nc2ccc(S(=O)(=O)NCC3CCCO3)cc2)cc1 (stereo not drawn) | 8.59%
16 | COc1ccc(S(=O)(=O)NC(C)C(=O)N2CCCC2)cc1C (stereo not drawn) | 14.7%
17 | CCN(C(=O)c1cccc(S(=O)(=O)N2CCc3ccccc32)c1)C1CCS(=O)(=O)C1 (stereo not drawn) | 5.96%
18 | O=C(COC(=O)c1ccc(OC(F)(F)F)cc1)NCCN1C(=O)CSC1=O | -11.9%
19 | O=C(O)CCCNS(=O)(=O)c1ccc2ccccc2c1 | 14.6%
20 | CCc1noc(C)c1C(=O)Nc1cc(S(=O)(=O)N2CCOCC2)ccc1N1CCN(CC)CC1 | 1.82%
21 | Cc1ccc(NC(=O)c2ccccc2NC(=O)c2cccs2)cc1 | 16.8%
22 | O=C(NCc1n[nH]c(=S)n1-c1cccc(C(F)(F)F)c1)c1ccc(S(=O)(=O)N2CCCCC2)cc1 | 14.1%
23 | Cn1nc(C(F)(F)F)c(-c2ccc(F)cc2)c1NC(=O)CSCC(=O)O | 11%
24 | C=CCN(CC=C)CCCOc1ccc(Br)cc1Cl | -4.66%
25 | C/C(=N\NC(=S)NC(C)C)c1ccccc1OC(F)F | 8.21%
26 | Cc1cc(C)nc(SCc2ccc(C(=O)N/N=C/c3ccccc3C(=O)O)cc2)n1 | 6.23%
27 | CNC(=O)COC(=O)c1ccc(-c2nc3ccccc3s2)s1 | 6.64%

Row | Compound | hERG current change (%, negative = inhibition) at 1uM
28 | CC(C)(C)n1nc2c(c1NC(=O)COc1ccc(Cl)cc1)CSC2 | -10.2%
29 | Cc1nn(-c2ccccc2)c(Cl)c1C(=O)Nc1ccc(N2CCOCC2)cc1 | -2.78%
30 | Cc1ccc(S(=O)(=O)N2CCN(C(=O)CSc3ccccn3)CC2)c(C)c1 | 5.57%
31 | CC(OC(=O)c1cc(-c2cccnc2)nc2ccccc12)C(=O)Nc1ccc2ccccc2c1 (stereo not drawn) | 8.86%
32 | CCN(CC)c1ccc(C(=O)OCC(=O)Nc2cccc(S(=O)(=O)NC3=NCCCCC3)c2)cc1 | 6.14%
33 | Cc1ccc2c(c1)N(CC(=O)NCC(C)c1ccccc1)C(=O)c1cccnc1O2 (stereo not drawn) | 4.12%
34 | CCCCn1c(N)c(N(CC(C)C)C(=O)CSCC(=O)Nc2ccc(OC)cc2)c(=O)[nH]c1=O | 3.55%
35 | COC(=O)c1c(NC(=O)C(C)C)sc(C(=O)N2CCOCC2)c1C | 11.8%
36 | FC(F)(F)c1cccc(OCc2nnc3n2CCC3)c1 | 13.8%
37 | COC(=O)C1=C(c2ccc(OCc3ccccc3)cc2)C[C@@H]2CC[C@H]1N2C(=O)NCc1cccc(C(F)(F)F)c1 | 2.03%
38 | CCc1ccc(C(=O)Nc2ccc(C)c(NS(C)(=O)=O)c2)cc1 | 12.4%
39 | CSc1nc(N)c2c(n1)OC(N)=C(C#N)C2c1cccnc1 (stereo not drawn) | -0.914%
40 | O=C(Nc1ccc(S(=O)(=O)Nc2ncccn2)cc1)c1cccc(S(=O)(=O)N2CCCC2)c1 | 7.72%
41 | COc1cc(C(=O)Nc2nncs2)cc(OC)c1OC | 6.99%
42 | CC12CC(NC(=O)N1c1cccc(C(=O)N3CCN(c4ccccc4)CC3)c1)c1ccccc1O2 (stereo not drawn) | 3.82%
43 | CCCc1nnc(SCC(=O)N2CCCCC2C)n1CC1CCCO1 (stereo not drawn) | 9.62%
44 | CCN(CC(=O)Nc1ccc2c(c1)OCCO2)C(=O)/C=C/c1ccc(OC)cc1OC | 5.15%
45 | CCCc1c(O)c2ccccc2n(-c2ccccc2)c1=O | 7.88%
46 | Oc1cccc(C2c3[nH]c4ccccc4c3CCN2Cc2cnn(-c3ccccc3)c2)c1 (stereo not drawn) | 2.66%
47 | CN(CC(=O)Nc1ccc(F)c(F)c1)S(=O)(=O)c1cccs1 | 7.44%
48 | CC1CCN(C(=O)COC(=O)c2cc(Cl)c3c(c2)OCO3)CC1 | 10.2%
49 | Cl.NCCSC1CC(=O)N(c2ccc(Cl)c(Cl)c2)C1=O (stereo not drawn) | 18.9%
50 | Cc1cc(C(=O)NCCCN2CCN(c3cc(Cl)ccc3C)CC2)n(-c2ccccc2)n1 | -43%
51 | Cc1cc(C)c(NC(=O)CN(C)C(=O)CCC(=O)c2ccc(C)s2)c(C)c1 | 3.46%
52 | O=C(OCc1ccc(F)cc1)c1cccnc1Cl | 9.48%
53 | CN(CC(=O)NCc1ccc(Cl)cc1)S(=O)(=O)c1cccc2cccnc12 | -4.24%
54 | CC(C)(C)c1cc(NC(=O)CSc2nnc(NCc3ccccc3)s2)n(-c2ccccc2)n1 | -11.6%

— paper PMC4336329 (PLoS ONE, 2015)
